# In article PMC4336329 (PLoS ONE, 2015):
# Screen size: about 310,000 compounds; about 14,000 (4.5%) showed an effect of 50% or more. The effect is printed as a negative number. Some of the results follow.
# Biological target: human ether-à-go-go-related gene (hERG) potassium channel (human, UniProt Q12809)
# Experiment: primary screen, population patch clamp on CHO cells stably expressing hERG
# 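Further: peak tail current of the secondary pulse compared with the same well before compound.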
# Sequence of human ether-à-go-go-related gene (hERG) potassium channel (Q12809 whole entry, looked up): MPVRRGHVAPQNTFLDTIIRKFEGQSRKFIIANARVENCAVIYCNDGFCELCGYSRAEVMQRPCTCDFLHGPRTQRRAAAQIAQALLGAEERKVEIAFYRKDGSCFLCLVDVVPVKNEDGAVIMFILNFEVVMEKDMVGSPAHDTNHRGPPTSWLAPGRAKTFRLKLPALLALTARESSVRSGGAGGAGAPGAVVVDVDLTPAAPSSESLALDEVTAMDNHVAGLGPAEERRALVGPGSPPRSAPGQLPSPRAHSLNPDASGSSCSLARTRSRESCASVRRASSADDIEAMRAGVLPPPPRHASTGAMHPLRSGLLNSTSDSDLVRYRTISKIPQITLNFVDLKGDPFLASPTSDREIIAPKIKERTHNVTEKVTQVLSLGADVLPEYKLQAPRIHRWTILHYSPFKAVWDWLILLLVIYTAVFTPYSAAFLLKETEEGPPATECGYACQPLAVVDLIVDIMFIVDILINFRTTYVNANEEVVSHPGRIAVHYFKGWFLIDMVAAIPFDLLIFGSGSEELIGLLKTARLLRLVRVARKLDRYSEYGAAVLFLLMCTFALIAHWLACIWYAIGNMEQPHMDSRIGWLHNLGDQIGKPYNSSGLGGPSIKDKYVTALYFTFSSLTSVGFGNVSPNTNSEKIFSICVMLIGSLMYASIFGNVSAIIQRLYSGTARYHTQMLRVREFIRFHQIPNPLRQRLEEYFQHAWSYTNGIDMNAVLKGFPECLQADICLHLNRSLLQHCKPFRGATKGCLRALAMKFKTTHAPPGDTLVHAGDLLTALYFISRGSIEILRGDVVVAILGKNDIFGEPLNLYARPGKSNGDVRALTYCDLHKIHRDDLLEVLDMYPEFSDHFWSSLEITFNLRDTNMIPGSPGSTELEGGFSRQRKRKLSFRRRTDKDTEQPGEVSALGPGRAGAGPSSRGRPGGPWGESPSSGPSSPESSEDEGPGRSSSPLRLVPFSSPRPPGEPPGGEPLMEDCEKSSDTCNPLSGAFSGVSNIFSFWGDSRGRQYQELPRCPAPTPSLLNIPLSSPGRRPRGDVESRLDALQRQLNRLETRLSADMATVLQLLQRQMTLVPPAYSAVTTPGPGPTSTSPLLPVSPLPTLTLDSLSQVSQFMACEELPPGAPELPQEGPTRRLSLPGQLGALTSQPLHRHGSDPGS
row,SMILES,"hERG current change (%, negative = inhibition) at 10uM"
1,O=c1c2c3nc4ccccc4nc3n(-c3ccc4c(c3)OCCO4)c2ncn1C1CCCC1,4.93%
2,CCOC(=O)C1(CCOc2ccccc2)CCN(Cc2ccc(C(=O)OC)cc2)CC1,-49.9%
3,COC(=O)[C@@]12CCCN1[C@H](c1ccc(-c3ccc(F)cc3)c(OC)c1)[C@H]1C(=O)N(C)C(=O)[C@H]12.O=C(O)C(F)(F)F,-33%
4,CC1(C)CN2C(c3ccc(Cl)cc3)N2C1 (centres unmarked),11%
5,COCCOC(=O)C1=C(C)OC(N)=C(C#N)C1c1cc2cccc(C)c2nc1Cl (centres unmarked),-13.8%
6,Cc1ccc2c(c1)c1c3n2CCN=C3CCC1.Cl,-76.3%
7,CSc1ccc(OC2CCCCC2NS(=O)(=O)c2ccccc2)cc1 (centres unmarked),10.6%
8,Cc1ccc(OCC(=O)Nc2ccc(-c3nnc(-c4ccco4)o3)cc2)cc1,10.3%
9,O=C(Nc1ccc(F)c(Cl)c1)C1CC(=O)N(Cc2ccccc2)C1 (centres unmarked),-1.29%
10,O=C(CSc1ccc(-c2ccccc2)nn1)Nc1ccc2c(c1)OCCO2,-17.9%
11,CCn1cc(C(=O)O)c(=O)c2cc(F)c(N3CCN(C(=S)NC(=O)c4ccccc4Cl)CC3)cc21,-9.5%
12,Fc1ccc(CO/N=C/C2=C(Cl)c3ccccc3CC2)cc1,18.3%
13,N#Cc1ccc2ccn(CC(=O)NC3CCCCCC3)c2c1,9.58%
14,CCOCCCNC(=S)NCCNc1nc2ccc(C)cc2cc1C#N,-5.14%
15,CCN1CCN(c2nc3c(C)cccn3c(=O)c2/C=C(\C#N)S(=O)(=O)c2ccc(C)cc2)CC1,-62.9%
16,COc1cccc(/C=C/C(=O)N2CCN(c3n[nH]c(=O)[nH]c3=O)CC2)c1OC,14.8%
17,COP(=O)(OC)C(NC(C)=O)C(Cl)(Cl)Cl (centres unmarked),15.3%
18,Cc1nn(C(C)C(=O)NCCCN2CCCCCC2)c(=O)c2cc3sccc3n12 (centres unmarked),-4.89%
19,CC(C)CC(Nc1ncnc2scc(-c3ccccc3)c12)C(=O)O (centres unmarked),0.287%
20,COC(=O)CC/C(O)=C1\C(=O)CC(C)(C)CC1=NCc1nc2ccccc2[nH]1,0.594%
21,O=C(N/N=C/c1c(O)n(-c2ccccc2)c(=S)[nH]c1=O)c1ccccc1,12.8%
22,CN(c1cccc(Cl)c1)S(=O)(=O)c1cccc(C(=O)NCc2ccncc2)c1,-28.6%

row,SMILES,"hERG current change (%, negative = inhibition) at 10uM"
1,CC1CCN(CCCNC(=O)Cn2ncc3c([nH]c4ccccc43)c2=O)CC1,9.35%
2,COc1cc(S(=O)(=O)N2CCCCC2)c(OC)cc1Br,8.93%
3,COc1ccc(NC(=O)CC2CCCCC2)cc1OC,-3.7%
4,Cc1ccc(-n2c(C)nnc2SCC(=O)NC2CCCC2)cc1,-4.89%
5,CCN(C(=O)CSc1nnc(C(C)N(C)C)n1-c1ccc(F)cc1)C1CCS(=O)(=O)C1 (centres unmarked),4.62%
6,CC(=O)NCCOC(=O)Nc1cccnc1,12.9%
7,CC(=O)c1sc(NC(=O)CN2C(=O)C3CCCCC3C2=O)nc1-c1ccccc1 (centres unmarked),-19.5%
8,CC(C)C(=O)N1CCN(c2ccccc2NC(=S)NC(=O)c2cccs2)CC1,-2.66%
9,Cc1cccnc1NC(=O)c1ccc(Cl)c(S(=O)(=O)N2CCCCCC2)c1,-65.5%
10,O=C1CCC([N+](=O)[O-])C(c2cccc([N+](=O)[O-])c2)N1 (centres unmarked),8.88%
11,CCCc1cc(=O)[nH]c(SCC(=O)Nc2nonc2C)n1,4.4%
12,Cc1nc(-c2ccccc2)sc1C(=O)/C=C/c1ccc(Cl)cc1,15.8%
13,Cc1nc2ccc(S(=O)(=O)NCC(=O)N3CCc4ccccc43)cc2s1,-3.05%
14,O=C(NCc1ccccc1CN1CCCC1)C1CCN(C(=O)c2ccc(F)cc2)CC1,-20.1%
15,Cc1nnc(NC(=O)CSc2nnc(C(C)NC(=O)c3ccccc3F)n2C)s1 (centres unmarked),11.9%
16,Cc1cc(Cl)ccc1OCc1cn2cccnc2n1,-17.5%
17,Cc1nc(SCC(=O)Nc2ccnc3ccccc23)n[nH]1,-4.19%
18,CCc1cc(C(=O)N2CCCC(C(=O)c3cccc4ccccc34)C2)n(C)n1 (centres unmarked),-10.1%
19,COc1ccc(NS(=O)(=O)c2cc(OC)ccc2OC)cc1,6.32%
20,COc1ccc(-c2nc(NC(=O)Cn3c(=O)oc4ccccc43)sc2C)cc1,5.19%
21,COc1ccccc1C(=O)NCCNc1nc2cc(C)cc(C)c2cc1C#N,13.3%
22,O=C(N/N=C/c1cccc(O)c1)c1ccccc1O,4.92%

row,SMILES,"hERG current change (%, negative = inhibition) at 10uM"
1,Oc1c(C=Nc2ccccc2)sc2ccccc12,7.23%
2,COc1ccc(NC(=O)CN(c2cccc(C(F)(F)F)c2)S(C)(=O)=O)cc1OC,0.169%
3,COc1ccc(CNC(=O)CN2C(=O)NC3(CCCc4sccc43)C2=O)cc1OC (centres unmarked),-10.6%
4,Cc1ccccc1NC(=O)/C(C#N)=C/c1ccccc1C(F)(F)F,10.4%
5,NC1=NC(=O)CC(C(=O)Nc2cccc3ccccc23)S1 (centres unmarked),11.6%
6,COc1cccc2c1-c1c(O)cccc1C2=O,16.2%
7,Cc1ccc(CNC(=O)CCc2nnc3ccc(NCCCN4CCCC4=O)nn23)cc1,12.6%
8,CCC1=C(C(=O)OC)C(c2cc(OC)ccc2OC)C(C#N)=C(N)O1 (centres unmarked),10.7%
9,Cc1sc(NC(=O)c2ccco2)nc1-c1ccc2c(c1)CC(C)N2C(=O)C1CC1 (centres unmarked),-1.59%
10,CC(=O)c1ccc(-n2c(=O)[nH]c(=O)c3c(N)c(C(=O)c4ccc(Cl)cc4)sc32)cc1,-5.17%
11,COc1ccc(CC(NC(C)=O)C(=O)NC2CCN(S(=O)(=O)c3ccc(NC(C)=O)cc3)CC2)cc1OC (centres unmarked),8.57%
12,COC(=O)c1c(NC(=O)c2ccccc2)sc2c1CC(C)(C)NC2(C)C,-5%
13,O=C1N/C(=C/c2ccc(Br)s2)C(=O)N1c1ccccc1,17.3%
14,CN(CCc1ccccn1)S(=O)(=O)c1ccc(F)cc1,3.8%
15,CC(=O)c1ccc(S(=O)(=O)NCCC(=O)OC(C)C(=O)Nc2ccc(F)cc2)cc1 (centres unmarked),-7.96%
16,Cc1cc(C(=O)COC(=O)c2ccc[nH]c2=O)c(C)n1-c1ccccc1F,-2.38%
17,O=C(c1n[nH]c2c1CCC2)N1CCCC(Nc2cccc(F)c2)C1 (centres unmarked),-9.01%
18,COc1ccc([N+](=O)[O-])cc1NC(=O)COC(=O)/C=C/c1ccco1,1.54%
19,CC1CCCN(c2ccc(N)cc2C(N)=O)C1 (centres unmarked),4.44%
20,Cc1cc(OCC(=O)N[C@@H](Cc2ccccc2)C(=O)O)c2c3c(c(=O)oc2c1)CCC3,3.29%
21,O=C(NCC1CCCN1S(=O)(=O)c1cccs1)c1cccc(Cl)c1 (centres unmarked),-23.7%
22,COc1cccc(C(=O)NCC(c2ccc3c(c2)OCO3)N2CCN(c3ccc(F)cc3)CC2)c1 (centres unmarked),-22.5%

row,SMILES,"hERG current change (%, negative = inhibition) at 10uM"
1,CC(=O)Nc1nc2cc3c(cc2s1)OCO3,14.2%
2,COc1ccc(-c2nc(CS(=O)CC(=O)NCc3ccco3)c(C)o2)cc1 (centres unmarked),-7.82%
3,COC(=O)C(Cc1ccccc1)NC(=O)COc1ccc(C(C)(C)C)cc1 (centres unmarked),-30.7%
4,CCOc1nc(C)ccc1-c1noc(-c2ccccc2OC)n1,12.7%
5,Cc1ccc(C(=O)NNC(=O)c2cc3ccccc3cc2O)cc1,12.7%
6,CCOc1ccc(NC(=O)C2CCCN(S(=O)(=O)c3ccc4c(c3)CC(C)N4C(C)=O)C2)cc1 (centres unmarked),12.9%
7,CC(C)c1cccc(C(C)C)c1OC(=O)NC(=O)c1c(F)cccc1F,12.9%
8,Clc1ccc(/C=N/N2CCN(Cc3ccccc3Cl)CC2)cc1,14.9%
9,CCC(C)(C)N(C(=O)CCC(=O)Nc1cc(C)on1)C(C(=O)NC(C)(C)C)c1ccc(OC)cc1 (centres unmarked),7.87%
10,CCOC(=O)c1c(NC(=O)COc2ccccc2F)sc2c1CC(C)(C)NC2(C)C,5.17%
11,COc1ccc(S(=O)(=O)N2CCC(C(N)=O)CC2)c2ccccc12,-5.13%
12,COc1ccc(-c2cc(-c3ccc(OC)cc3)[nH]n2)cc1,12.4%
13,C=C(C)Cn1c(N2CCCC2)nc2c1c(=O)[nH]c(=O)n2C,7.26%
14,CC(C)NC(=O)CN1CCN(C(=O)c2ccc3oc(CCCc4ccccc4)nc3c2)CC1,-40.7%
15,O=C(Cc1ccc(Cl)cc1)N/N=C1\CCCc2ccccc21,-5.25%
16,Cc1cc(C)c(S(=O)(=O)c2ccccc2Cl)c(Cl)n1,2.34%
17,CC1(c2ccc(Cl)cc2)NC(=O)N(CC(=O)N2CCN(S(=O)(=O)c3ccccc3)CC2)C1=O (centres unmarked),-50%
18,O=C1CC(c2ccc(Br)cc2)NC(c2ccc(Br)cc2)C1c1ccccc1 (centres unmarked),-5.43%
19,O=C(Nc1cccc(F)c1)c1c(F)c(F)c(F)c(F)c1F,-12.2%
20,Cc1ccc(/C=N/Nc2ccc(F)cc2)s1,21.5%
